Consider seven molecules from paper PMC3897721, “Structure of Utp21 Tandem WD Domain Provides Insight into the Organization of the UTPB Complex Involved in Ribosome Synthesis” (PLoS ONE, 2014).

Test [1] deals with T1, GST-Utp21 1–684 (co-expressed with a Utp18 fragment) (yeast (S. cerevisiae)) (UniProt Q06078).
T1 sequence: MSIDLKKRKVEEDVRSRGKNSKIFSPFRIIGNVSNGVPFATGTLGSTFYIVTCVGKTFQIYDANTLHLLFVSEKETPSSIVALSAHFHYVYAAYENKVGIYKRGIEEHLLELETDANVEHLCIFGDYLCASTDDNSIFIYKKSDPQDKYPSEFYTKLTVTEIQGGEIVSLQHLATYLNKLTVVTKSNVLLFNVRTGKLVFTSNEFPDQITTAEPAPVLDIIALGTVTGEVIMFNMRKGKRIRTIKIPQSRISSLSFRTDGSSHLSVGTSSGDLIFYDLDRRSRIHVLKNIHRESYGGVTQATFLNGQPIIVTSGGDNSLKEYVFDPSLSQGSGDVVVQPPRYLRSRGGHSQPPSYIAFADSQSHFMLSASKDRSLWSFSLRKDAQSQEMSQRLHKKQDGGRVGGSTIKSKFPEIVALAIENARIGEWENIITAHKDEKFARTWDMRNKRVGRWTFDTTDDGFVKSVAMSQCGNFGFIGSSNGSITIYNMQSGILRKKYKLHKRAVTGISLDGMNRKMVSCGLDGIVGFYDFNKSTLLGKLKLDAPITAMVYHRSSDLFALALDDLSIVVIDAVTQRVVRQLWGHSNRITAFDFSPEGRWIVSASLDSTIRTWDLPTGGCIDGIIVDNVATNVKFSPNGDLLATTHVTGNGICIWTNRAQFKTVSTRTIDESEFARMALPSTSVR
Nature of the test: co-purification (glutathione affinity, then SEC); GST-Utp21 1–684 and a His6-Smt3-Utp18 fragment co-expressed in E. coli BL21(DE3); His6-Smt3 cleaved with Ulp1 in the lysate; Glutathione Sepharose in 25 mM Tris-HCl pH 7.5, 500 mM NaCl; on-bead PreScission cleavage; Superdex 200 in 10 mM Tris-HCl pH 7.5, 200 mM NaCl.

For test [2], the target named is T2, Utp21 (full-length, two-hybrid fusion) (yeast (S. cerevisiae)) (UniProt Q06078).
T2 sequence: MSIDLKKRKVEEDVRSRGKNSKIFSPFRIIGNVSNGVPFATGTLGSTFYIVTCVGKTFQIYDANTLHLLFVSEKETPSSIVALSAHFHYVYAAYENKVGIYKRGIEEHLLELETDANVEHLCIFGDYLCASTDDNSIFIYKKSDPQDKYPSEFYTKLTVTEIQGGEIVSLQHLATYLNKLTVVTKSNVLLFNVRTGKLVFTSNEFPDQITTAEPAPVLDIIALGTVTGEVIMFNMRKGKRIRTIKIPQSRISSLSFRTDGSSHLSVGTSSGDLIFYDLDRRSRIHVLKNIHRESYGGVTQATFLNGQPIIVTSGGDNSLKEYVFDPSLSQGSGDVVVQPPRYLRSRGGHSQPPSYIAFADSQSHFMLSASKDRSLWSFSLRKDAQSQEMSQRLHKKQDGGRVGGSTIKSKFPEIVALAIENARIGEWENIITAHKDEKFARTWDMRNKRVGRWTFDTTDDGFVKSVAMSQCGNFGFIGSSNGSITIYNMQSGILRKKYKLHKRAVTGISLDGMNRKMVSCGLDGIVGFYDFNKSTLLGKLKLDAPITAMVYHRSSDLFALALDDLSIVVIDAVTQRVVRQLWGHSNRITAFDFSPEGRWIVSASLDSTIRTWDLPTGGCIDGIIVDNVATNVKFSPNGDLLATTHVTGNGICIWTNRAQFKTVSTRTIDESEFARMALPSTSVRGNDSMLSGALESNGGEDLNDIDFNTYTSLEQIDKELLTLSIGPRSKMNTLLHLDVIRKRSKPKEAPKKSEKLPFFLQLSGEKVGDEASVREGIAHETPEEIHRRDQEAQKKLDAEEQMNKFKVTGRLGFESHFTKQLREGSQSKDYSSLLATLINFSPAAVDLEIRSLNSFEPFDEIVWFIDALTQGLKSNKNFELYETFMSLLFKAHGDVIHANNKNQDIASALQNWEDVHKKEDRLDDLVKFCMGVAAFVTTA
Nature of the test: two-hybrid; … GAL4 system, genes fused to AD and BD, co-expressed in AH109 cells; SC-Leu-Trp-His (low stringency), with 5 mM 3-AT, and SC-Leu-Trp-His-Ade (high stringency); 30°C, 3 d.

For test [3], the target named is T3, Utp21 CTD (residues 684–939), two-hybrid fusion (yeast (S. cerevisiae)) (UniProt Q06078).
T3 sequence: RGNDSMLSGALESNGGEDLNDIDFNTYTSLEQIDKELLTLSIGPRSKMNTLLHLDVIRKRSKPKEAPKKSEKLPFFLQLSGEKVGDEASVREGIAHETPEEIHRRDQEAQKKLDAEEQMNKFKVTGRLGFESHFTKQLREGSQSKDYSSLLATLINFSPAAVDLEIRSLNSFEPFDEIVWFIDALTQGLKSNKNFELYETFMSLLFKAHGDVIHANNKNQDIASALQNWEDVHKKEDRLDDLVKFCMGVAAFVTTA
Described as above.

Test [4] addresses T4, Utp21 tandem WD domain (residues 1–683), two-hybrid fusion (yeast (S. cerevisiae)) (UniProt Q06078).
T4 sequence: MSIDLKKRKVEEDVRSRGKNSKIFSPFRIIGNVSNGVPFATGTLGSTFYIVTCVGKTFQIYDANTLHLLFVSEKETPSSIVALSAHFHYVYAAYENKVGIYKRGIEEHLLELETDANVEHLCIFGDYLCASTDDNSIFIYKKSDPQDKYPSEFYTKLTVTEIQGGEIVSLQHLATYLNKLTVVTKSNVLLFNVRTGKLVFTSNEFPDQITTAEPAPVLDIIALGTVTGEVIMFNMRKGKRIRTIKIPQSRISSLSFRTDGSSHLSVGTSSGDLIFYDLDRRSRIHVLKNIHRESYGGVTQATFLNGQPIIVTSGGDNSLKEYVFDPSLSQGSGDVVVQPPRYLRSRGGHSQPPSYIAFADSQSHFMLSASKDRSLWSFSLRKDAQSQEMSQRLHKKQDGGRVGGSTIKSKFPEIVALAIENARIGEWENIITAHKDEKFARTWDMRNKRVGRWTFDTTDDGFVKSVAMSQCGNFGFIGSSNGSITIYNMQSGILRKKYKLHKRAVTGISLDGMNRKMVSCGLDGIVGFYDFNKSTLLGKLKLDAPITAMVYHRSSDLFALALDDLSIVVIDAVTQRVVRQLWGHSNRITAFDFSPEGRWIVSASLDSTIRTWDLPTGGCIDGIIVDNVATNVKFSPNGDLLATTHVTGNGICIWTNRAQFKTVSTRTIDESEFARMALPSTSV
The test is described as above.

No constants are given. Whether binding was seen depends on the method and setting. Some entries that bind do so weakly or less than the wild type. Where a sequence is shown, tags or fusion partners need not be part of it.

B1: His6-Smt3-Utp18 100–190 (domain or fragment, yeast (S. cerevisiae), UniProt P40362 100-190, looked up)
chain: EDTMDVDDEDDSSSDDYSEDSEEAAWIDSDDEKIKVPILVTNKTKKLRTSYNESKINGVHYINRLRSQFEKIYPRPKWVDDESDSELDDEE
notes: Utp18, yeast (S. cerevisiae), residues 100–190; source: expressed from pET28a, purified (HisTrap and Q chromatography); not shown: His6, N-terminal, kept; Smt3, N-terminal, kept
Take B1: the binding result in test [1] was “binds”.

B2: Utp18 residues 101–190, two-hybrid fusion (domain or fragment, UniProt P40362 101-190)
chain: DTMDVDDEDDSSSDDYSEDSEEAAWIDSDDEKIKVPILVTNKTKKLRTSYNESKINGVHYINRLRSQFEKIYPRPKWVDDESDSELDDEE
In the case of B2, the binding entry in test [2] is recorded as “binds”.

B3: full-length Utp18, two-hybrid fusion (protein, UniProt P40362 1-594)
chain: MTMATTAMNVSVPPPDEEEQLLAKFVFGDTTDLQENLAKFNADFIFNEQEMDVEDQEDEGSESDNSEEDEAQNGELDHVNNDQLFFVDDGGNEDSQDKNEDTMDVDDEDDSSSDDYSEDSEEAAWIDSDDEKIKVPILVTNKTKKLRTSYNESKINGVHYINRLRSQFEKIYPRPKWVDDESDSELDDEEDDEEEGSNNVINGDINALTKILSTTYNYKDTLSNSKLLPPKKLDIVRLKDANASHPSHSAIQSLSFHPSKPLLLTGGYDKTLRIYHIDGKTNHLVTSLHLVGSPIQTCTFYTSLSNQNQQNIFTAGRRRYMHSWDLSLENLTHSQTAKIEKFSRLYGHESTQRSFENFKVAHLQNSQTNSVHGIVLLQGNNGWINILHSTSGLWLMGCKIEGVITDFCIDYQPISRGKFRTILIAVNAYGEVWEFDLNKNGHVIRRWKDQGGVGITKIQVGGGTTTTCPALQISKIKQNRWLAVGSESGFVNLYDRNNAMTSSTPTPVAALDQLTTTISNLQFSPDGQILCMASRAVKDALRLVHLPSCSVFSNWPTSGTPLGKVTSVAFSPSGGLLAVGNEQGKVRLWKLNHY
Consider B3, for which the values for the binding result in test [3], in test [4] and in test [2] were “no binding”, “binds” and “binds”, respectively.

B4: Utp18 isolated WD domain (residues 191–594), two-hybrid fusion (domain or fragment, UniProt P40362 191-594)
chain: DDEEEGSNNVINGDINALTKILSTTYNYKDTLSNSKLLPPKKLDIVRLKDANASHPSHSAIQSLSFHPSKPLLLTGGYDKTLRIYHIDGKTNHLVTSLHLVGSPIQTCTFYTSLSNQNQQNIFTAGRRRYMHSWDLSLENLTHSQTAKIEKFSRLYGHESTQRSFENFKVAHLQNSQTNSVHGIVLLQGNNGWINILHSTSGLWLMGCKIEGVITDFCIDYQPISRGKFRTILIAVNAYGEVWEFDLNKNGHVIRRWKDQGGVGITKIQVGGGTTTTCPALQISKIKQNRWLAVGSESGFVNLYDRNNAMTSSTPTPVAALDQLTTTISNLQFSPDGQILCMASRAVKDALRLVHLPSCSVFSNWPTSGTPLGKVTSVAFSPSGGLLAVGNEQGKVRLWKLNHY
As to B4, in test [2], the binding result was “no binding”.

B5: His6-Smt3-Utp18 100–139 (domain or fragment, yeast (S. cerevisiae), UniProt P40362 100-139, looked up)
chain: EDTMDVDDEDDSSSDDYSEDSEEAAWIDSDDEKIKVPILV
notes: Utp18, yeast (S. cerevisiae), residues 100–139; source: expressed from pET28a, purified (HisTrap and Q chromatography); not shown: His6, N-terminal, kept; Smt3, N-terminal, kept
With B5, in test [1], the binding result is reported as “binds”.

B6: Utp18 residues 1–100, two-hybrid fusion (domain or fragment, UniProt P40362 1-100)
chain: MTMATTAMNVSVPPPDEEEQLLAKFVFGDTTDLQENLAKFNADFIFNEQEMDVEDQEDEGSESDNSEEDEAQNGELDHVNNDQLFFVDDGGNEDSQDKNE
Take B6: the binding entry in test [2] was “no binding”.

B7: His6-Smt3-Utp18 139–190 (domain or fragment, yeast (S. cerevisiae), UniProt P40362 139-190, looked up)
chain: VTNKTKKLRTSYNESKINGVHYINRLRSQFEKIYPRPKWVDDESDSELDDEE
notes: Utp18, yeast (S. cerevisiae), residues 139–190; source: expressed from pET28a, purified (HisTrap and Q chromatography); not shown: His6, N-terminal, kept; Smt3, N-terminal, kept
B7: the binding result in test [1] was “binds”.
